Source: paper PMC2148190 (The Journal of Cell Biology, 1999)

Legend:
Experiment in all cases: co-IP
BidmIII-1 (M97,D98→ A,A) = biological target: T1, BidmIII-1 (M97,D98→ A,A) (mouse, UniProt P70444, M97,D98→ A,A)
T1 sequence: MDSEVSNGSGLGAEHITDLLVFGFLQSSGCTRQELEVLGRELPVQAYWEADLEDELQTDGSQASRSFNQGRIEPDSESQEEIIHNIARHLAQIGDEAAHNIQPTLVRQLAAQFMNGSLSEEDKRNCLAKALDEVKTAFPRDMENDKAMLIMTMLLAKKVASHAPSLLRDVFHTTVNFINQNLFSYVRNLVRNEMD

[1] = biological target: T2, His-tagged Bid (recombinant wild-type Bid) (mouse, UniProt P70444)
T2 sequence: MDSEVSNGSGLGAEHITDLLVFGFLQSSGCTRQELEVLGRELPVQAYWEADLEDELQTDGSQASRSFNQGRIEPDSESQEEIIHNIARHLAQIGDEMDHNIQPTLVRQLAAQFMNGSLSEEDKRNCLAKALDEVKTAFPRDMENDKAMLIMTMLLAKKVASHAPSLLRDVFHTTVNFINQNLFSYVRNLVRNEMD

BidmIII-3 (G94→ A) = biological target: T3, BidmIII-3 (G94→ A) (mouse, UniProt P70444, G94→ A)
T3 sequence: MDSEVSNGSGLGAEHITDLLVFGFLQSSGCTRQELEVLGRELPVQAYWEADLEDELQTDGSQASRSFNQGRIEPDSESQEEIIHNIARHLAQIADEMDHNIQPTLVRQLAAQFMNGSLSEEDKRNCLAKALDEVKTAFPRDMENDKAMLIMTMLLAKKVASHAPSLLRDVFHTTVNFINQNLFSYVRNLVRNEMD

Measured: binding result

B1: Human Bax-α lacking 20 amino acids at the COOH terminus (domain or fragment)
chain: not shown
binds: all assays above
